The data set concerns the molecule itself. In words: cryo-EM structure; ClpB hexamer with a 20-fold molar excess of casein, 10 min at room temperature in 25 mM Tris-HCl pH 7.4, 25 mM KCl, 10 mM MgCl2, 2 mM ATPγS, 1 mM DTT; single-particle cryo-EM.

B1: ClpB-DWB (natural protein)
chain: not shown
notes: ClpB, bacterial disaggregase, with the double Walker B mutations E279A/E678A; also called ClpB-E279A/E678A; double Walker B mutant; source: E. coli ΔclpB::kan cells, purified (Ni-IDA, size exclusion chromatography Superdex S200)
As for B1, the binding result was “binds”.
